{"source": "paper PMC12136788", "binders": {"B1": {"name": "chr5:132424181:132424182:+_ENSG00000170606_ENST00000304858|hu_mus|FALSE|FALSE (ssRNA)", "RNA": "GGGAGUUCUACAGUCCGACGAUCUGCACACUGCAGAGCACAGCCUCGAGUGACAGCUUCAUCUGCAUUUAAUGUUGUGCUGAGUUCUUUACCAAAAAACUUGCUGAUCUUCUCUUUCACUGCAGGGAUUCGUGUGGCACCACCCAACAGAGGAUUGAGCAUCA"}, "B2": {"name": "chr11:87044885:87044886:-_ENSMUSG00000046442_ENSMUST00000055438|mus_hu|motif|central (ssRNA)", "RNA": "GGGAGUUCUACAGUCCGACGAUCAGGACCAAACAUCUCAACUGGUAGCAAAAACUGGGCACUGUGAGGUUUGCUUGCUUCGGUUUGUGUGAGAUCUAGGUAGCCUGGGUCUUCCAGCACGUUGAUUUGGGACCCUGGGCUCAGCAACAGAGGAUUGAGCAUCA"}, "B3": {"name": "103024646_103024766_6071_3pUTR_ENSMUSG00000009575_ENSMUST00000118152|mouse|control|control (ssRNA)", "RNA": "GGGAGUUCUACAGUCCGACGAUCGAGUUCAAUUCUCUCCUACCCACCCACACAAACAGGAAUGCACACAUCCCCUCAUAAUCCCAGUAUUUAAGGCUGAGGCAGGAGUACUACAAGCACUAGGGCCAGCCUAGGCUCUUUAAACAACAGAGGAUUGAGCAUCA"}, "B4": {"name": "105400607_105404228_2276_CDS_ENSG00000114423_ENST00000394027|human|control|control (ssRNA)", "RNA": "GGGAGUUCUACAGUCCGACGAUCCUCUGAAGAUGGACCAUGUGUUCCAUUCAGCAUACAGUGACCAUUAUCACAAGACCGAACAGGAGGUUUUACAUUAUGACAAUGAGAUGGUUGUGAAUUCAGGGAAACAGGGUGGGAUGACAACAGAGGAUUGAGCAUCA"}, "B5": {"name": "chr7:140881322:140881323:-_ENSMUSG00000030979_ENSMUST00000135760|mus_hu|FALSE|FALSE (ssRNA)", "RNA": "GGGAGUUCUACAGUCCGACGAUCAAUUUGAUCGAUAUUGUCACCAGAUAACUCCUGAAUGUGCUUGAGACUGUAUGUGAGGCCAGAGGGACUAAAAAAUGUGAUGCUGGCUGGAACCCCCUGCUGGGAAUAGUAGCUGUUCAGCAACAGAGGAUUGAGCAUCA"}, "B6": {"name": "chr11:46405157:46405158:+_ENSG00000110492_ENST00000395566|hu_hu|hu_hu_hu_mus_False|68_68 (ssRNA)", "RNA": "GGGAGUUCUACAGUCCGACGAUCCCCUCCCCACUUUGGGCACUUGGUGUGGGCGUGAGAGGACAGGAUGAUUGAUUAGAGCUGACAGGAAGACAAAAGGCACUGGUGGGUUAUAUCUUGGGCCUGUGGGAGAGGAGGGCUCCGCAACAGAGGAUUGAGCAUCA"}, "B7": {"name": "chr11:2905015:2905016:-_ENSG00000129757_ENST00000380725|hu_mus|FALSE|FALSE (ssRNA)", "RNA": "GGGAGUUCUACAGUCCGACGAUCAGUUUUCAGAUUUCCACAAAACCGUGGGCUGCUCUACGCAACCAUCUCCGGUUCCUGCUACAUGAACGAAAGGUCCCAGCCGAAGCCCAGAGUUCUUCCAUCGUCCGCUGCCCAGAUGCCCAACAGAGGAUUGAGCAUCA"}, "B8": {"name": "chr14:66974463:66974464:+_ENSMUSG00000022044_ENSMUST00000074523|mus_hu|mus_mus_mus_hu_False|38_48 (ssRNA)", "RNA": "GGGAGUUCUACAGUCCGACGAUCUUGUAGGACGACUUAUUCAGGGGAUCGGCCAGGAAGCAGGAGCAGAACAAGGACACCAGCGGGAGUUCCUUCAUCUUCUCCUUGUAGGCAGCAAGGGUCAUGUUUCUGGGAUCUGGUGGCCAACAGAGGAUUGAGCAUCA"}, "B9": {"name": "chr3:151883435:151883436:+_ENSMUSG00000028034_ENSMUST00000166984|mus_mus|FALSE|FALSE (ssRNA)", "RNA": "GGGAGUUCUACAGUCCGACGAUCCAUUUCUCCAUUUCUUCCUAUUACAAUGCCAACAGCAAAUCUUGGAAUUGGGACAUCUAUCCCUUCAUUGCCUCCUAUUCUUGAGCCAUACUCAUUCCGCACUUCUCUGAAACCACCUUGCAACAGAGGAUUGAGCAUCA"}, "B10": {"name": "chr10:70691390:70691391:-_ENSMUSG00000003923_ENSMUST00000092430|mus_hu|FALSE|FALSE (ssRNA)", "RNA": "GGGAGUUCUACAGUCCGACGAUCCUUUAUUGUGCGACGUAGAAGAUCCUUUCGUCCAACUUCAAUCAUUUGUUCUUCCCAAGACUUCAUUUCAUUAUGAUAACGAGUUUCGUCCUCUUUAGCAUGCUGAAUAUAUAAUUCCUUCAACAGAGGAUUGAGCAUCA"}, "B11": {"name": "81124230_81124350_1936_CDS_ENSG00000152784_ENST00000415738|human|control|control (ssRNA)", "RNA": "GGGAGUUCUACAGUCCGACGAUCGGCGUACAGGAAGGGGCUCUGCUUAGGCAGGCCGCCGCCGCCGCUCGGCAGGGACCCGCAACCUCCGUUCAGGUCCGCGGCCCCCUGGAGCUUCACCGCUAGAGGGUCCGCGGCGGCGGGCAACAGAGGAUUGAGCAUCA"}, "B12": {"name": "chr6:52679276:52679277:+_ENSMUSG00000004535_ENSMUST00000080723|mus_hu|motif|central (ssRNA)", "RNA": "GGGAGUUCUACAGUCCGACGAUCGUAACAGAACUGAUAAAAUUCUCCAUCAUCAUUUGGAAGGUAAUAUCCUUGGAAUGCGGGUACACAAUUGACUGUUGAUCCUUCCACAUAAUGUUCAGGCAUAGGGGACCAUAAAAACGUCAACAGAGGAUUGAGCAUCA"}, "B13": {"name": "34378438_34378558_645_CDS_ENSG00000134779_ENST00000590842|human|control|control (ssRNA)", "RNA": "GGGAGUUCUACAGUCCGACGAUCGGUGAAGGCAUAUUGCCACUGGGGCAGGCCCAGGUGGGUGAUGAGCAGGCGGUAAUAGGCAGUAAAGGUGUCUGUGAGAAAAUGCCAGUAUAACGCUCUGUCCAGGAACCAGAUCUCAGUCAACAGAGGAUUGAGCAUCA"}, "B14": {"name": "chr2:48026839:48026840:+_ENSG00000116062_ENST00000540021|hu_hu|hu_hu_hu_mus_False|1_78 (ssRNA)", "RNA": "GGGAGUUCUACAGUCCGACGAUCAUAGUGAGCCACUAGCGUCCUAAAUCUGGAACAAUGGCGAUCAUCCGAAAACUGGCCGAUGAAAAACUUGCCCAGUGAAGUGUCCACAAAGCAAACACCAUACACACGAGUGUGGCCAGACAACAGAGGAUUGAGCAUCA"}, "B15": {"name": "chr1:39494564:39494565:+_ENSG00000168653_ENST00000372967|hu_hu|hu_hu_hu_mus_True|18_68 (ssRNA)", "RNA": "GGGAGUUCUACAGUCCGACGAUCAUGCAUUCGCCUCAUCGUUUUGUACCGAAGCAAGCACUCUUCGAAAUCAUCAUACUCUAUCUUGCACUCCUUUUUCGCCCGGGUCCCACCGAUUCCAUGUGCACACUCUAUCCACUCUUUCAACAGAGGAUUGAGCAUCA"}, "B16": {"name": "87970796_87970916_7552_CDS_ENSG00000188994_ENST00000369577|human|control|control (ssRNA)", "RNA": "GGGAGUUCUACAGUCCGACGAUCUUCUGACUGGCAGAGGUUAUCUUCCUGAAAAUCAUUACUUACAUUUGAAGAAGUAUUAGCUUGGGUCUCUACACUUGUGCUAUCUUCAUUUAUUAAUUUUGUAAUAAACAAUUCUGUUAGCAACAGAGGAUUGAGCAUCA"}, "B17": {"name": "chr11:86029109:86029110:-_ENSMUSG00000018068_ENSMUST00000018212|mus_hu|FALSE|FALSE (ssRNA)", "RNA": "GGGAGUUCUACAGUCCGACGAUCGUGAACAAGCUUAGCAAUGUUGGGAUCUGCAAUGUACAUUUGGUGCAAGAGACAACAGAUAAGGCACUGAACUUCUCGAAGGUUACAGAGCAAAUUGUCUUCUCCUUCCUCCAUUCCCUUCAACAGAGGAUUGAGCAUCA"}, "B18": {"name": "chrX:148369326:148369327:+_ENSMUSG00000025261_ENSMUST00000112622|mus_hu|FALSE|FALSE (ssRNA)", "RNA": "GGGAGUUCUACAGUCCGACGAUCCUUGUCUCGCAUUGAAUCAUUAGCUGUGCACAUCAACACAUUCCAAGCACAAAUUAAGAAAUGCAAACAGAACAAAAAAAUAUAUAUAUAUAUAAUUUUUUCCCCUAUCCAAAGGUUUCACAACAGAGGAUUGAGCAUCA"}, "B19": {"name": "chr10:122431106:122431107:-_ENSMUSG00000034602_ENSMUST00000073792|mus_mus|motif|central (ssRNA)", "RNA": "GGGAGUUCUACAGUCCGACGAUCAAUAUUUUCAAAAUGUUGCCACUCUUACUAUUUUGAUACUUUAUCAGUGAUAGUCCGGUUCUUUAAUUCACAAGUGAGUAUAUCAAAAUAUAAAAAAUACACGGCUUGAGUCAUUUUUUUCAACAGAGGAUUGAGCAUCA"}, "B20": {"name": "96118393_96119580_343_3pUTR_ENSMUSG00000033237_ENSMUST00000096250|mouse|control|control (ssRNA)", "RNA": "GGGAGUUCUACAGUCCGACGAUCAAGUAAUACUGUUUUAAAGCAAAGGCAGCGUUGGAACAACUUCUGGGAAAGUUGAACUCUUCAACAAUUUCUCCCCACUGAUUCUUCUCAGAAACCUUCGCGAAUCCGCCUAAAGUAGUGCAACAGAGGAUUGAGCAUCA"}, "B21": {"name": "chr15:5129413:5129414:+_ENSMUSG00000050697_ENSMUST00000051186|mus_hu|motif|central (ssRNA)", "RNA": "GGGAGUUCUACAGUCCGACGAUCAAAACAAAGAGGGAGGGAUAUGGAAGAAGUUAUCCAGACUGUUACUACUGCUGGAAGAUACGGGCUAUUUAUGAAGUUAAGGAGCCCAGAAAACAAAAUCACCUAUAAAGGUCUUGGGAACAACAGAGGAUUGAGCAUCA"}, "B22": {"name": "chr11:51926749:51926750:+_ENSMUSG00000020349_ENSMUST00000020608|perfect_dup|motif|central (ssRNA)", "RNA": "GGGAGUUCUACAGUCCGACGAUCGUCCACAUAGUCUCCCAUAAACAGGUAAUUUGUAUCUGGUGAUUUACCACCAAUUCGGAAGAGUUCCAUGAGAUCAUGAAAUUGCCCAUGUACAUCUCCACACACAGUGACUGGACAUCGCAACAGAGGAUUGAGCAUCA"}}, "note": "This is one part of the list."}
{"biological_target": "T1, UNK ZnF1-3 (human, UniProt Q9C0B0 31-174)", "T1 sequence": "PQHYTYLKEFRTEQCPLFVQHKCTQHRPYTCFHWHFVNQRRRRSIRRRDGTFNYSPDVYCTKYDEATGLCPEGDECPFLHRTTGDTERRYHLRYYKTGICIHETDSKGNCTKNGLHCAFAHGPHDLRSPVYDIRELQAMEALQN", "assay": "nsRBNS (natural sequence RNA bind-n-seq); RBNS binding buffer (assumed for nsRBNS): 25 mM Tris pH 7.5, 150 mM KCl, 3 mM MgCl2, 0.01% Triton X-100, 500 ug/ml BSA, 20 U/ml SUPERase-In, 4 C; UNK is unkempt and MSI1 is Musashi-1; names of the RNAs are library labels; protein concentration not given here; high values mean tight binding", "units": {"binding signal": "enrichment R"}}
{"binder": "B1", "binding signal": 0.962}
{"binder": "B2", "binding signal": 1.12}
{"binder": "B3", "binding signal": 0.954}
{"binder": "B4", "binding signal": 1.35}
{"binder": "B5", "binding signal": 1.74}
{"binder": "B6", "binding signal": 1.96}
{"binder": "B7", "binding signal": 0.719}
{"binder": "B8", "binding signal": 2.48}
{"binder": "B9", "binding signal": 1.07}
{"binder": "B10", "binding signal": 0.708}
{"binder": "B11", "binding signal": 0.392}
{"binder": "B12", "binding signal": 1.19}
{"binder": "B13", "binding signal": 1.33}
{"binder": "B14", "binding signal": 1.23}
{"binder": "B15", "binding signal": 0.681}
{"binder": "B16", "binding signal": 0.862}
{"binder": "B17", "binding signal": 1.21}
{"binder": "B18", "binding signal": 0.406}
{"binder": "B19", "binding signal": 0.796}
{"binder": "B20", "binding signal": 0.883}
{"binder": "B21", "binding signal": 1.9}
{"binder": "B22", "binding signal": 1.08}
